Test results reported in patent US20190352381A1 (Alexion, published 2019).

Molecular target: T1, human properdin (human, UniProt P27918 28-469)
T1 sequence (looked up): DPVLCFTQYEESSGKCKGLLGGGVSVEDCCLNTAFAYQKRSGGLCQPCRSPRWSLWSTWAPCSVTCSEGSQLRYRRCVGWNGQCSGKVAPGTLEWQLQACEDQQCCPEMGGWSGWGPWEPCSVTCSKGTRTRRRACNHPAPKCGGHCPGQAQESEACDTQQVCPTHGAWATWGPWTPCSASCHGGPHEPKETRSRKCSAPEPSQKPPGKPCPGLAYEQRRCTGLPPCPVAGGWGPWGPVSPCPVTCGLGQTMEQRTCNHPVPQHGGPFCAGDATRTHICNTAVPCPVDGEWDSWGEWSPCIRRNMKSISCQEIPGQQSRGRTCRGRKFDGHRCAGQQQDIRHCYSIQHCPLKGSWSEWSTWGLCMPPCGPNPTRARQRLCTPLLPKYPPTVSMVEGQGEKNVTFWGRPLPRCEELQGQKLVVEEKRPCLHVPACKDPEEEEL
Experiment: cell-based or functional assay

IC50 (read off the curve): ~8 nM
B1: TPP-2222 (LVP058_hG1_noC1q, VHH on human Fc without C1q binding) (Fc fusion)
chain: LEVQLVESGGGLVQAGGSLRLSCAASGRISSIIHMAWYRQAPGKQRELVAEISRVGTTVYADSVKGRFTISRDDAKNTVTLQMNSLKPEDTAVYYCNALQYEKHGGADYWGQGTQVTVSS[here human IgG1 Fc with K322A (EU numbers) without letters]
